Data reported in the supplement of paper PMC11417369.
This is one part of the list.

Tested on: PF3D7_0420300 AP2 domain 1 (GST-tagged)
Experiment: gcPBM binding intensity (ln(normalized median fluorescence intensity)); higher = stronger DNA binding
Method in brief: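 Each value is the highest Masliner-normalised natural-log median intensity across replicate spots of either orientation of a probe. The probes were primer-extended double-stranded 36-bp intergenic genomic sequences on an Agilent 4 × 180k array, alongside negative controls, exposed for 1 h to GST-tagged P. falciparum DNA-binding domains expressed in E. coli. Bound protein was picked up with Alexa488 anti-GST antibody and scanned at 488 nm.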

Row | Sequence | gcPBM binding intensity (ln)
1 | ACATCAAGCAGACACACACACACACCCACCCACCGA [CACACA_site371] | 10.2
2 | ATATATTTATTAAGGTGTACAAAAATTATGTTGCAT [XGTACX_site7546] | 9.36
3 | TATTTTATCTAAGGATGTACATTATTAAGAAAATGT [XGTACX_site6123] | 8.91
4 | TTATTATTGTTATGTTGTACTTTTACAAACTTTTTG [XGTACX_site8797] | 9.37
5 | TTCTATGAATTCATAGTGCAAATGAGTTATTTTTTC [GTGCAC_site9709] | 9.06
6 | AAGAAAATAGGGTTCATAGGATTATACTTTTGGAAT [TGCATGCA_negctrl_site80] | 9.21
7 | AACGAGCAAGACGGGGTGCACACAAACTAATATGCC [GTGCAC_site9436] | 9.78
8 | TAATAAAAGATATATACACACAAATAAATAAATAAA [CACACA_site7818] | 9.72
9 | ATAATATAAACATATTGTACACATATATTGCTATTT [XGTACX_site2799] | 9.43
10 | AAAAAAAAATATATATATATATATATAAATAAATTT [CACACA_negctrl_site519] | 9.03
11 | AAATATAAAAAAAATATATAATTTTTACATCGAATT [CACACA_negctrl_site544] | 8.99
12 | AAACAAAATGGTAACACACACATATATAAATATGTA [CACACA_site6994] | 9.87
13 | TATTATAAAGAAATTACACACATGCAATGAAAAAAA [CACACA_site1697] | 9.51
14 | TCGTTTCCTTAAAATTGTACTTTTTTTTTTTTTTTT [XGTACX_site64] | 9.27
15 | AGAGTATATATATATGCATGCATATCTCATATTTAT [TGCATGCA_site509] | 9.25
16 | TGTTATTATTTGTACACACACATATAGATCCTTGTT [CACACA_site7667] | 9.97
17 | TAATGATAAATACATACACACAAAAAATAATATATA [CACACA_site2576] | 9.88
18 | ATTAAAGAGATATATACACACATTATGGGGGAATAA [CACACA_site6226] | 9.7
19 | ATAGAAATTATAAATAGTACATAATAAAAATGAGCA [XGTACX_site822] | 9.66
20 | CCTAAATATTTTTTATGTACATATTTATCTAAATTT [XGTACX_site6835] | 9.23
21 | TGAGGAAACATGAGATGTACATATAAATTTTTTTTT [XGTACX_site2595] | 9.14
22 | TTCATATAAATACATGCACACAAAAATATCAATACA [CACACA_site8753] | 9.64

Row | Sequence | gcPBM binding intensity (ln)
23 | ATATATTTTATTACCAGTACATATATTAAAATAATA [XGTACX_site8440] | 9.1
24 | ATTTTTTTATTTGATTGTACAATTTTCTTTCAAAAT [XGTACX_site2902] | 9.23
25 | TATACAATATAAAATACACACGCACCCAAAAAAAAA [CACACA_site9174] | 9.83
26 | ATATAATGTGTAGGCCGTATTTACGTTTGGCAATCA [CACACA_negctrl_site1130] | 9.25
27 | TATAATATAATATATATATATATATATATATAAGAA [CACACA_negctrl_site78] | 9.02
28 | AAAAAAAATAGACACACACACATACACATAAATATA [CACACA_site7742] | 10.1
29 | AGGGTTACAAGAGGAACACACAAAAAAATAAATAAA [CACACA_site1436] | 9.54
30 | ATTAAATCTATATATACACACATGTTTGGTATATTC [CACACA_site2657] | 9.56
31 | TTTATATTACAATAATATATTAAAAAATAAAATATA [TGCATGCA_negctrl_site18] | 8.73
32 | CGATTACTAATTTTTAGTACATATAATCAATATGTA [XGTACX_site7857] | 9.01
33 | ATCTATTTCTATTGTTGTACTTATTTTTCATTGTTT [XGTACX_site6942] | 10
34 | ATGTAGCCTTACGCTTGTACGAATATCTTAATTTTT [XGTACX_site4331] | 9.31
35 | ATAAAAATATAAACATGTACATAAAAATCTATATAT [XGTACX_site405] | 9.53
36 | TTGCTTATATTTCTAAAATGTAAAAGACACAAAGGT [XGTACX_negctrl_site225] | 9.1
37 | TTCTAATATATGCATACACACAAATGTGAATATACA [CACACA_site2142] | 9.39
38 | AAAAAAAAAAAAAACACACACACACCCAAATATATA [CACACA_site1169] | 10.1
39 | ATATATTTATTTATATGTACATAATATTTTTCTCAG [XGTACX_site800] | 9.27
40 | TTTTTTATTACTTTGTGTACTTACACAGAACCTTAT [XGTACX_site6038] | 9.25
41 | AAAAATGCAATTTAATGTACACATAAGATGTTATTT [XGTACX_site6853] | 9.16
42 | ATATAGGTAATATTTTGTACATATTTTTGGGGTAGT [XGTACX_site5634] | 9.56
43 | AATTCTTTTTTCAACACACACACACCCGAAAATATA [CACACA_site3111] | 10.1
44 | ATATTTTTTGTATGTTGTACATAAAATATACATTTT [XGTACX_site6815] | 9.06

Row | Sequence | gcPBM binding intensity (ln)
45 | AGATACTTTTTTAAAAGTACAAAAACTTTCGATATA [XGTACX_site959] | 8.77
46 | CATACATACATACATACACACATACATATATATATA [CACACA_site8388] | 9.55
47 | TCTAAAATAGTCCAGAGTACAAGAAACCATAATATA [XGTACX_site5237] | 9.16
48 | TATACATATTTAATATGTACATAATAATACTTATTC [XGTACX_site6939] | 9.16
49 | CCAAATTTATAAAGAACACACACATATATATATATA [CACACA_site7900] | 9.44
50 | AAGCATGTAGAATAATGTACTTGTGATTTTAATATA [XGTACX_site8565] | 9.07
51 | AAAAAAAAAATACAGGTGCAATAAGAAAAAAATGGT | 9.99
52 | TATATTAACAAAATGGTGCAATAATTTCTATATTAT [GTGCAC_site9857] | 9.17
53 | ATGTATAAACATATATGTACTTAAATAAAATGTTAA [XGTACX_site4044] | 9.11
54 | TAAAAAAACATATATTGTACGGAGATAATAATTTTT [XGTACX_site2946] | 9.24
55 | AAAAATAAAAAAATAATAAAATAAAAAATAAAAAAT [TGCATGCA_negctrl_site89] | 9.23
56 | TATACTGTCAATTCTACACACCATAGGGGGAGCATA [CACACA_site1875] | 9.83
57 | ATTAAAAGAACAATGTAAAAAAAGCAAATTAAAGAT [TGCATGCA_negctrl_site360] | 9.55
58 | CACCAATTCATATGCACACACATCTGCATATTATAT [CACACA_site1773] | 9.74
59 | TTATTAAATGAAAAATGTACATATAAATGATTATAT [XGTACX_site2788] | 9.21
60 | GAAATGTGTAGACACGCACACACAAAAAAATATATA [CACACA_site2912] | 9.71
61 | TCTAATAAAATAAATACATGCATACATACATACATA [TGCATGCA_site895] | 9.19
62 | AGGATTATATATTAATGTACCCGCGTTAATTTTTTT [XGTACX_site2878] | 9.44
63 | AAATAGAGAAATACAAGTACATACTAAACCTATCTA [XGTACX_site1334] | 9.48
64 | ACAAAGAAATATAATACACACAAGAATATATTGGAT [CACACA_site3901] | 10
65 | TAATATTTATCAAGTCGTACATAAAATGTATAATAA [XGTACX_site1103] | 9.06
66 | GTACAATAAGATGTAGCATGCCGTACCTTCACTACG [TGCATGCA_site235] | 9.24

Row | Sequence | gcPBM binding intensity (ln)
67 | CAAATAACAAAATAATGTACATTTATACTTTTTTTT [XGTACX_site943] | 9.19
68 | TATACATATTTGTATTGTACATAAACTAAATCTTCA [XGTACX_site610] | 9.04
69 | ATACTGTATGAAAGCACACATACTTATTACTAACAT [CACACA_site4164] | 9.38
70 | TATCTCTACAAAATTTTATTCATTATTCATGTTATA [XGTACX_negctrl_site452] | 9.29
71 | GACCTACAAAAAGGCACACATATACTCATACATACA [CACACA_site5232] | 9.46
72 | ACATTTATTTTGAATGGTACACTATTATTATGAAAT [XGTACX_site4384] | 9.1
73 | GTGTAATGCTTATCGGTGCATATATATATATATATA | 9.36
74 | AAAAAAAAAAAAGGTACTACACACTATTATCAATAG [XGTACX_site161] | 9.48
75 | GATAATTTTTGCATATGTACTTAAAAATTAAAAATT [XGTACX_site7037] | 8.95
76 | TGAACAACTATTACTGCACACATTCTTACACTATAT [CACACA_site4533] | 9.76
77 | TTTTTTAAACGTTTAAATAATTAAATATAAATAAAT [CACACA_negctrl_site1567] | 8.81
78 | AAAAAAGAAACAATCGCATGCAATGTTAATGTACAT [TGCATGCA_site395] | 9.64
79 | TACGCAAAATAAAATCAAAATATAAGGAAAAAAAAA [TGCATGCA_negctrl_site578] | 9.12
80 | AGGTGTCATATATGCACACAAAAGTAACACGCACCT [CACACA_site472] | 9.61
81 | ATATTTTAATTATAAAGTACATAAAAATATATAAAC [XGTACX_site6705] | 9.36
82 | ATATAGTAAAGTTATACACACATGAATTTTCCCATA [CACACA_site7457] | 9.48
83 | TTTTTTATTGTGATACGTATATTATTTTATGATAAA [CACACA_negctrl_site1591] | 9.22
84 | TAAAAATGTAAACACACACACATAAATATATTTTAT [CACACA_site5397] | 10
85 | ATTAAAAAATCCATAGTGCACTACGATAGGTTCCGA [GTGCAC_site9463] | 9.39
86 | AAAGATGGAGTGATATGTACTGATATATTATTATAT [XGTACX_site6500] | 9.34
87 | AAGCATAAAGTATATAGTACATATATATATATATAT [XGTACX_site2945] | 9.15
88 | TTTGTTGTTGTGAAACGTACTCATAGGATGTTGTAT [XGTACX_site5716] | 9.15
